Laboratory results: article PMC7819943, “Rice protein-binding microarrays: a tool to detect cis-acting elements near promoter regions in rice”
The other results are listed elsewhere or left out.

biological target: T1, OsWOX13 (Oryza sativa, UniProt Q5QMM3 1-267); experiment: protein-binding microarray (RPBM); PBS, 2% BSA, 51.3 ng/ul salmon testes DNA, 50 uM zinc acetate, 200 nM TF, 25 C, 1 h; high values mean tight binding; settings: protein: recombinant; tags: N-terminal polyhistidine and DsRed monomer fusion (pET32a); label: CyDye5-dUTP incorporated in the synthesized complementary strand; 3' TTTTT single-stranded linker to array surface; dsDNA, one strand shown
T1 sequence: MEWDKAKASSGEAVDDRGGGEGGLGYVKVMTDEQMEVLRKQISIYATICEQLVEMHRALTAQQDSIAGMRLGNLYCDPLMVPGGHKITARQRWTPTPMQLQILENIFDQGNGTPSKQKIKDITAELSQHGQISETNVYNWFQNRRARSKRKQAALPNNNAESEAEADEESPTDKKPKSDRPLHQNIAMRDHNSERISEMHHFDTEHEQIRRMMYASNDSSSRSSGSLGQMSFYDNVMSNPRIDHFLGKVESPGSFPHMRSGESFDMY
Method in brief: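 Transcription factors were each fused at the N-terminus to a polyhistidine tag plus DsRed and expressed in E. coli BL21-CodonPlus before Ni–NTA purification. Binding to a double-stranded custom Agilent array was carried out with 200 nM protein at 25 °C for 1 h in PBS, 2% BSA, salmon testes DNA and 50 µM zinc acetate. The binding signal is per-feature fluorescence intensity, in arbitrary units, on an Axon 4000B scanner.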

Row | Sequence | binding signal
1 | ATATTGATGTTAATGAATCTAAATAGATATATATGTCTAGCGGAGTCACCTAGTGCAG | 5520 fluorescence intensity (a.u.)
2 | ATTTGATTGACCCAGTTGGAGCAATGAGCCAATGACACTCCGGAGTCACCTAGTGCAG | 17300 fluorescence intensity (a.u.)
3 | CGCGATTAACTAATGCACGTATCAACCGCCGCTAATACGTCGGAGTCACCTAGTGCAG | 5060 fluorescence intensity (a.u.)
4 | TTACATTACAGCATTGATTGAACTTTCTAAAACCTAAATCCGGAGTCACCTAGTGCAG | 32300 fluorescence intensity (a.u.)
5 | CATAATCATGTTAGATCATGACGCTAATGATGTTGGCGCCCGGAGTCACCTAGTGCAG | 6880 fluorescence intensity (a.u.)
6 | TTTGATTTGGCTCGGAGAAAATTAAGGAGAATGGCAATGTCGGAGTCACCTAGTGCAG | 28500 fluorescence intensity (a.u.)
7 | TATATCTATTCATTGATAGAGTAAATGGAACATATTCCCTCGGAGTCACCTAGTGCAG | 4880 fluorescence intensity (a.u.)
8 | TAATTAATCCATAATTAGCATATGTGATGCTACAGTAAACCGGAGTCACCTAGTGCAG | 11700 fluorescence intensity (a.u.)
9 | AATTTCTGTCTGATTGTCATGGTGACTGTCAAATGCAACCCGGAGTCACCTAGTGCAG | 16400 fluorescence intensity (a.u.)
10 | CCTAATTTTAGCAGCAGCAAAGCTCGGATTCCCCTCCCATCGGAGTCACCTAGTGCAG | 12100 fluorescence intensity (a.u.)
11 | AACTCAATCAGAAACGACACCCACAAGACTAATACACAATCGGAGTCACCTAGTGCAG | 4540 fluorescence intensity (a.u.)
12 | TCTGATAACAAATTAAACCTGCAGGATCAATGAATTAACCCGGAGTCACCTAGTGCAG | 6950 fluorescence intensity (a.u.)
13 | TAAAACCGTGTGATTATCAGGTTATCACATGCAGTAATCTCGGAGTCACCTAGTGCAG | 6880 fluorescence intensity (a.u.)
14 | GCCAGACTGCTATTTATACATTCATACTATATCACGTGAACGGAGTCACCTAGTGCAG | 3360 fluorescence intensity (a.u.)
15 | TCTCAGACCATGATAGACAGCATCAGGGAGCTGAACTGGCCGGAGTCACCTAGTGCAG | 5350 fluorescence intensity (a.u.)
16 | TGTAACAGAATTTAGAGGAGAACATGGCCGAATAATTTTGCGGAGTCACCTAGTGCAG | 5120 fluorescence intensity (a.u.)
17 | TAGGGAGCAAATTAACATCGATCACTATATTCATTGATGGCGGAGTCACCTAGTGCAG | 3470 fluorescence intensity (a.u.)
18 | CATCACCTCAATCAACATCAACCATCCCACCCTCTCAACCCGGAGTCACCTAGTGCAG | 6510 fluorescence intensity (a.u.)
19 | TTAAATTTCGAGTTGAAAATTTTCAAATTGAGTTTTGAAACGGAGTCACCTAGTGCAG | 3500 fluorescence intensity (a.u.)
20 | CCAGATATATAATTAACCACCCCGTCTCTTTCACGACCCACGGAGTCACCTAGTGCAG | 9400 fluorescence intensity (a.u.)
21 | GATTTATTTAATTATGACCATTCGCTAATCCGGCCAAGACCGGAGTCACCTAGTGCAG | 7990 fluorescence intensity (a.u.)

Row | Sequence | binding signal
22 | GTGATTGATATCAATGTAGTACTAGCATGCAAAGCACGAACGGAGTCACCTAGTGCAG | 41300 fluorescence intensity (a.u.)
23 | CACAAATTATAGTACATCGGGCATGCATCCTTCTTGGGTGCGGAGTCACCTAGTGCAG | 11200 fluorescence intensity (a.u.)
24 | TTTGGTAATCTAAAAGTTTATTTTAAAATTTCTTTGTCAACGGAGTCACCTAGTGCAG | 3470 fluorescence intensity (a.u.)
25 | TTAAGCCTAATTAATCCGTCATTAGCAAATGTTTACTGTACGGAGTCACCTAGTGCAG | 8840 fluorescence intensity (a.u.)
26 | TCGATTATACCAATTTACCATGACTTGTTACTACCAGTAGCGGAGTCACCTAGTGCAG | 4070 fluorescence intensity (a.u.)
27 | GTGTAAAATGGAACTAATCATTAACGTATGATTAATTATGCGGAGTCACCTAGTGCAG | 24100 fluorescence intensity (a.u.)
28 | GGATTAATAGAGAGTCTGTTAGAGTAAGCATCTAGTTTGACGGAGTCACCTAGTGCAG | 3220 fluorescence intensity (a.u.)
29 | ATTTGATGCAAATTGGCTATAAGCAAAGTTCAGAAAACGGCGGAGTCACCTAGTGCAG | 12000 fluorescence intensity (a.u.)
30 | GGGCCGGGAGGGTGCCTGATTGATTCGATTCAGGATTGGCCGGAGTCACCTAGTGCAG | 17400 fluorescence intensity (a.u.)
31 | CTGCCGAAATTGCATGTATTAATCATCACCTCTACTAGCTCGGAGTCACCTAGTGCAG | 6950 ± 271 fluorescence intensity (a.u.)
32 | CCCATTGACAATATTTGTTTCGGTCCCGTACTTATAGGCCCGGAGTCACCTAGTGCAG | 4840 fluorescence intensity (a.u.)
33 | TTACTAATTTGGCTTTTCCTGGTTAAATAATATCTGACGTCGGAGTCACCTAGTGCAG | 15000 fluorescence intensity (a.u.)
34 | ATTTTGATTTGTGGGCTGATGGTAGATAAGAAACTCCAAACGGAGTCACCTAGTGCAG | 27000 fluorescence intensity (a.u.)
35 | CCAGAATTGTTTACTTCAATTTACCCAAATTTAGGCCCATCGGAGTCACCTAGTGCAG | 7240 fluorescence intensity (a.u.)
36 | TCAGTAAACAAAATAAATAAATAAATGGCAACCCAAGTTGCGGAGTCACCTAGTGCAG | 3630 fluorescence intensity (a.u.)
37 | ACAGATTGAAGGAGTTATCAATATAATGTTTTCAATAATGCGGAGTCACCTAGTGCAG | 24300 fluorescence intensity (a.u.)
38 | ATGTGATGGAAAAGATGGAAGTTTATGTATATAGGAAAATCGGAGTCACCTAGTGCAG | 4940 fluorescence intensity (a.u.)
39 | ATGGTTTAATTAGGCTCAAAAGATCCATCTCGTGATTTCCCGGAGTCACCTAGTGCAG | 4660 fluorescence intensity (a.u.)
40 | AACTGATAATCTGACAGCCATTGATCGATCAACTATAAATCGGAGTCACCTAGTGCAG | 4290 fluorescence intensity (a.u.)
41 | AAATAAATAATAGGTGACGTAATCTATTAATAGTGTAGTTCGGAGTCACCTAGTGCAG | 8560 fluorescence intensity (a.u.)
42 | TTCAATTTGATTTTGATTTTAGGTGAATCTATAGATATCACGGAGTCACCTAGTGCAG | 9990 fluorescence intensity (a.u.)
